Source: PubChem BioAssay AID686979 (National Center for Advancing Translational Sciences (NCATS), 2013)
Values joined by “and” are separate entries in the source; they are usually repeats but may differ in a detail not shown here. Equal entries are not always repeated. In all, about 420,000 compounds went through this assay and about 50,000 (12%) were called active. Inconclusive results, whose numbers are uncertain, are shown with a selection of clear calls. Calls follow the shape of the dose curve; as a rule, active = well fitted inhibition curve with a large enough effect; inconclusive = small, poorly fitted or top-dose-only effect; inactive = flat fitted curve, though single readings scatter. Potencies of inconclusive entries are left out as doubtful fits.

experiment: qHTS for Inhibitors of human tyrosyl-DNA phosphodiesterase 1 (TDP1): qHTS in cells in presence of CPT; details: chicken DT40 Tdp1-/-;hTDP1 cells + 20 nM CPT, ATP luminescence, 48 h; activity change, negative = growth inhibition: at 46.2 µM (top of the series) unless noted; also: nearly all actives have a fitted effect of over 55% in size
Method in brief: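 Chicken DT40 Tdp1-/- cells complemented with human TDP1, 400 cells/well, exposed to compounds plus 20 nM camptothecin for at least 48 h at 37 C; viability read as ATP content by CellTiter-Glo luminescence.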
% is scaled to controls: 0 for no effect and ±100 for the full control effect; potency is read from the fitted curve at half-maximal effect; tags tell the direction and shape of the fitted curve.

| Compound | Potency | activity change, negative = growth inhibition |
| --- | --- | --- |
| CCOC(=O)N1CCN(C(=O)CSCC(=O)Nc2nc(-c3ccc4c(c3)OCO4)cs2)CC1 | active: 20.6 µM | – |
| CCC(C)c1ccccc1OCCCNC1CCCC1 (configuration not stated) | inconclusive [inhibitor, single point] | – |
| Cc1cc(/C=C2\SC(=S)N(C)C2=O)c(C)n1-c1ccccc1O | active: 20.6 µM | – |
| O=C(NC1CCN(Cc2ccccc2)CC1)c1cccc(S(=O)(=O)Nc2ccc(Br)cc2)c1 | active: 20.6 µM | – |
| Cc1ccc(S(=O)(=O)N2C[C@H]3[C@H]4C(=O)N(Cc5ccccc5)C(=O)[C@H]4CC(=O)[C@H]3[C@@H]2c2cccc3ccccc23)cc1 | inconclusive [inhibitor, full curve] | – |
| CC1CCN(c2ccc(NC(=S)NC(=O)c3ccc(-c4cccc([N+](=O)[O-])c4)o3)cc2)CC1 | active: 11.2 µM | – |
| O=C(/C=C/c1cccc(Cl)c1)Nc1ccncc1 | inconclusive [inhibitor, single point] | – |
| Cc1cc(Cl)ccc1NC(=O)CN(C)C1=NS(=O)(=O)c2ccccc21 | inactive | – |
| CCn1c(=O)c2cc(C(=O)NCCCOC)sc2c2ccccc21 | active: 18.4 µM | – |
| O=C1CCCCN1CC(=O)N1CCCC(Nc2ccc(F)c(F)c2)C1 (configuration not stated) | active: 20.6 µM | – |
| CCOc1ccc(/C=C2\NC(=S)NC2=O)cc1 | inconclusive [inhibitor, single point] | – |
| CCCCN(C(=O)COC(=O)COc1c(C)cc(C)cc1C)c1c(N)n(CCC)c(=O)[nH]c1=O | inactive | – |
| CC(C)n1c(-c2ccc(N(C)C)cc2)nc2ccccc21 | active: 8.91 µM and active: 29.1 µM | – |
| COc1cc2c(C(=O)N(C)c3cc(Cl)ccc3OC)cn(C)c(=O)c2cc1OC | inconclusive [inhibitor, single point] | – |
| CCCCCn1c(CN2CCN(C(=O)c3ccco3)CC2)nc2c1c(=O)n(C)c(=O)n2C | inconclusive [inhibitor, full curve, poor fit] | – |
| CCCCc1nnc(NC(=O)CCS(=O)(=O)c2ccc(Cl)cc2)s1 | active: 6.51 µM | – |
| CSc1ccc(/C=C(\C#N)C(=O)NC2CCCCC2C)cc1 (configuration not stated) | inconclusive [inhibitor, single point] | – |
| O=[N+]([O-])c1ccc(N/N=C/c2ccc[nH]2)cc1 | inconclusive [inhibitor, single point] | – |
| CC(=O)N1CCCc2cc(S(=O)(=O)NCc3cccc(C)c3)ccc21 | inconclusive [inhibitor, single point] | – |
| COc1ccc(S(=O)(=O)N(C)c2ccc(C(=O)NCCC(C)C)cc2)cc1 | – | inconclusive: -32.6% [inhibitor] |
| COc1ccccc1CN1CCNC(=O)C1CC(=O)NCCCN1CCCC1=O (configuration not stated) | inactive | – |
| Cc1snc(SCC(=O)N/N=C(\N)COc2cccc(C(F)(F)F)c2)c1C#N | inactive | – |
| O=C(CCS(=O)(=O)c1ccc2c(c1)NC(=O)CS2)NCc1cccs1 | inactive | – |
| COc1ccc(CNC(=O)CCC2N=C3c4ccccc4N=C(SCc4cccc(F)c4)N3C2=O)cc1 (configuration not stated) | inconclusive [inhibitor, single point] | – |

| Compound | Potency | activity change, negative = growth inhibition |
| --- | --- | --- |
| Cc1cn([C@H]2C[C@H](O)[C@@H](CCC(=O)NCCN3CCCCC3)O2)c(=O)[nH]c1=O | inactive | – |
| CCC(c1nnnn1CCOC)N1CCN(c2cccc(C(F)(F)F)c2)CC1 (configuration not stated) | inconclusive [inhibitor, single point] | – |
| O=C(Cc1ccc(S(=O)(=O)N2CCCCC2)cc1)NCc1ccc(Cl)cc1 | active: 29.1 µM | – |
| CN[C@H]1C[C@H]2c3cc(Oc4ccccc4C)ccc3CCN2C(=O)[C@H]1[C@H](C)O | inconclusive [inhibitor, single point] | – |
| CC1(c2ccc3c(c2)OCCO3)NC(=O)N(CC(=O)Nc2ccccc2SCC#N)C1=O (configuration not stated) | inactive | – |
| CCOC(=O)C(C)NC(=O)Cn1ncc2c(=O)oc3ccc(C)cc3c21 (configuration not stated) | inconclusive [inhibitor, single point] | – |
| CCN1C(=O)CSc2ccc(C(=O)NC3CCCCC3)cc21 | active: 35.5 µM | – |
| CCCCN(CCCC)CC(O)Cn1c2ccccc2c(=O)c2ccccc21 (configuration not stated) | inactive | – |
| Nc1ncnc(Sc2ncccn2)c1[N+](=O)[O-] | active: 1.16 µM | – |
| O=c1[nH][nH]c(-c2ccccc2)c1C=Nc1ccc(OC(F)(F)F)cc1 | inactive | – |
| COc1ccc(N2C(=O)c3ccccc3NC2c2ccc(OC)c(COc3ccccn3)c2)cc1 (configuration not stated) | inconclusive [inhibitor, single point] | – |
| O=C(NCCN1CCOCC1)c1cccc2c1C(=O)c1ccc(N3CCCC3)cc1S2(=O)=O | inactive | – |
| C=CCc1cccc(CNc2nc3ccccc3n2CCC)c1O | inconclusive [inhibitor, single point] | – |
| COc1ccc(NC(=O)C2Cc3c(-c4ccccc4Oc4ccccc4)ccnc3O2)cc1OC (configuration not stated) | active: 9.2 µM | – |
| Cc1ccc(S(=O)(=O)N2CCC(C(=O)NCCN3CCOCC3)CC2)cc1 | inactive | – |
| O=c1c2cnn(-c3ccc(F)cc3)c2ncn1Cc1cccc(Cl)c1 | inactive | – |
| CN1OC[C@@H]2CN[C@H](c3ccc(-c4cc5ccccc5o4)cc3)C[C@@H]21 | active: 16.4 µM | – |
| COc1ccc(CCC(=O)Nc2cc(Cl)ccc2N2CCN(C)CC2)cc1 | inconclusive [inhibitor, single point] | – |
| COc1cccc(CN2C(=O)NC(C)(C3CCN(Cc4cc(Cl)ccc4O)CC3)C2=O)c1OC (configuration not stated) | inconclusive [inhibitor, single point] | – |
| Cc1ccc(-n2c(C)cc(C(=O)CSc3nncs3)c2C)cc1 | active: 10.3 µM | – |
| COCCn1c(SCC(=O)Nc2cccc(NC(C)=O)c2)nc2c([nH]c3ccccc32)c1=O | inconclusive [inhibitor, single point] | – |
| CCCCn1c(SCc2ccc(C(=O)OC)o2)nc2cc(S(N)(=O)=O)ccc21 | active: 3.26 µM | – |
| CN(C)c1ccc(-c2nccc(NCc3ccccc3)n2)cc1 | inconclusive [inhibitor, single point] | – |
